Measurements published in patent US20140086927A1 (priority 2012, published 2014).

What was measured:
HA of H1N1 (NC99) = type: binding, Influenza A virus H1N1 (NC99)
HA of H3N2 = type: binding, Influenza A virus H3N2 (Aic68, Fuk85)
12 H3N2 strain viruses = type: cell-based, Influenza A virus

B1: F005-126: human IgG antibody broadly neutralizing H3N2 viruses; heavy chain SEQ ID NO: 2, light chain SEQ ID NO: 13 (antibody)
heavy: QVQLVQSGAEVKKPGASVTVSCQVSGYTLTSYGLSWVRQAPGQGLEWVGWINTYDGQTKYVKKFQGRVTMTTHTGTNTAYMEMKSLRSDDTAVYYCARVEGVRGVMGFHYYPMDVWGQGTMVTVSS[not shown - human IgG1 constant region with changes]
light: QSVLTQPPSVSGAPGQRVTISCTGSSSNIGAGYAVHWYQQLPGTAPKLLISGNSNRPSGVPDRFSGSKSGTSASLAITGLQAEDEADYYCQSYDSSLSGSVFGGGTKLTVLGQPKAAPSVTLFPPSSEELQANKATLVCLISDFYPGAVTVAWKADSSPVKAGVETTTPSKQSNNKYAASSYLSLTPEQWKSHRSYSCQVHEGSTVEKTVAPTECSARQ
- binding to HA of H1N1 (NC99) artificially expressed on cells (HA of H1N1 (NC99)): bound only to the cells expressing HA of H3N2
- binding to HA and HA1 domain of H3N2 expressed on cells (HA of H3N2): bound equally to HA and HA1
- binding to HA of H3N2 (Aic68) artificially expressed on cells (HA of H3N2): bound only to the cells expressing HA of H3N2
- neutralization of H3N2 strains (in words) (12 H3N2 strain viruses): able to neutralize all 12 H3 strains
